From PubChem BioAssay AID1963576 (National Center for Advancing Translational Sciences (NCATS), 2024)
Hit rate of the full screen: of about 46,000 compounds, about 60 (0.1%) were called active. Another 3% or so got no clear call; they are omitted. Calls come from the whole dose curve; as a rule, active = well fitted inhibition curve with a large enough effect; inconclusive = small, poorly fitted or top-dose-only effect; inactive = no such curve, though single readings can be large or run the other way. The list shows a part of the results.

assay: Primary qHTS assay for Inhibitors of ovarian cancer metastasis using an organotypic tumor microenvironment (TME) model.; note: nearly all actives have a fitted effect of over 65% in size;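 for activity change, negative = inhibition: plate controls were DMSO wells for no effect and tomatine positive control wells for full effect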; settings: SKOV3ip1-GFP adhesion/invasion on 3D omental model, fluorescence; series mostly up to 45.8 µM; activity change, negative = inhibition: at the top concentration
Method in brief: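 Adhesion/invasion was scored as fixed GFP-labeled SKOV3ip1 cell counts (488/509 nm), normalized to DMSO and tomatine controls. Cancer cells in serum-free medium, with four compound doses (0.36-46 umol/L), sat 2 hr at RT then 16 hr at 37 C on a 48 hr fibroblast/mesothelial/ECM culture.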

Activity change, negative = inhibition, inactive:
Cc1ccc(-c2noc(-c3nnn(CC(=O)Nc4ccc(C)cc4Cl)c3N)n2)cc1 6.17%
Cc1ccc(-n2nc(C(=O)NC(C)C)c(=O)n(C)c2=O)cc1 7.42%
Cc1cccc(OCC(=O)Nc2nnc(S(=O)(=O)N3CCCCCC3)s2)c1 7.01%
CCOc1cc2c(cc1OCC)C(CC(=O)OC)N(C(=O)Nc1cc(C)cc(C)c1)CC2 (stereo not given) -2.74%
Cc1ccc(NC(=O)CCc2nc(-c3ccccc3F)no2)c(C)c1 74.6%
COc1cc(C(=O)Nc2sc3c(c2C#N)CCCC3)c(Br)c(OC)c1OC -9.21%
CCOc1ccccc1CNC(=O)c1ccc2c(c1)N(CC)CCS2 -9.91%
COc1cccc(CNC(=O)C(Cc2ccccc2)NS(=O)(=O)c2ccc3c(c2)CCN3C(C)=O)c1 (stereo not given) 1.94%
CCOc1ccc(NS(=O)(=O)c2ccc3[nH]cc(C(=O)NCc4ccco4)c(=O)c3c2)cc1 4.85%
O=S(=O)(NCCc1ccccc1)c1ccc(N2CCCCS2(=O)=O)cc1 3.41%
O=c1cc(CN2CCN(S(=O)(=O)c3ccc(Cl)cc3)CC2)nc2sc(-c3ccccc3F)nn12 0.523%
COc1ccc(Cl)cc1NC(=O)c1cc2nc(-c3ccc4c(c3)OCO4)cc(C(F)(F)F)n2n1 3.02%
O=C(CSc1nc(-c2ccc(Cl)cc2)nc2c1Cc1ccccc1O2)N1CCCCC1 4.44%
COc1ccc(C(=O)O)cc1Nc1nc2ccc(C)cc2n2cnnc12 -9.03%
Cc1ccc(C)c(N2CCN(c3nc4ccccc4c4nc(CCn5nc(C)cc5C)nn34)CC2)c1 7.23%
CCCCc1ccc(NC(=O)c2cc3c(=O)n4ccccc4nc3n2C)cc1 -2.42%
COC(=O)Cn1c(=O)c2c(nc3n2CCN3c2cccc(C)c2)n(C)c1=O -8.94%
CCN(CC)S(=O)(=O)c1ccc(NC(=O)[C@H](CSCc2ccccc2)N2Cc3ccccc3C2=O)cc1 3.53%
COc1ccc2nc3sc(C(=O)Nc4ccccc4F)cc3cc2c1 -6.85%
COc1ccc(NC(=O)CCCc2nc(-c3ccco3)no2)c(OC)c1 -10.5%
CCOC(=O)Cn1c(=O)oc2cc(S(=O)(=O)N3CCN(c4ccc(Cl)cc4)CC3)ccc21 4.23%
CCc1ccc(S(=O)(=O)c2cn(C)c3cc(N4CCCCC4C)c(F)cc3c2=O)cc1 (stereo not given) -8.39%
Cc1ccc(S(=O)(=O)NCC(c2ccc(N(C)C)cc2)N2CCCC2)cc1 (stereo not given) -5.81%
COc1cc(OC)cc(-c2nc3n(n2)C(c2ccccc2F)C(C(=O)Nc2cccnc2)=C(C)N3)c1 (stereo not given) 0.369%
CCc1ccc(C2C(C(=O)Nc3ccccc3)=C(C)Nc3c(C(=O)Nc4ccc(C)cc4)cnn32)cc1 (stereo not given) -4.86%
O=C(c1ccco1)N(Cc1cccnc1)c1nc2ccc(F)cc2s1 -7.67%
Cc1ccc(-n2c(CCC(=O)O)ccc2-c2cccs2)cc1C 3.73%
O=C(CSc1nccn1Cc1ccco1)Nc1cccc(F)c1 -0.409%
CCc1c(C)c2ccc3c(c2oc1=O)CN(Cc1ccccc1)CO3 9.17%
COc1ccc(OCC(=O)Nc2nnc(S(=O)(=O)N3CCCCCC3)s2)cc1 9.42%
CCOC(=O)C1CCN(C(c2ccccc2)c2c(O)cc(C)n(Cc3ccco3)c2=O)CC1 (stereo not given) 7.57%
O=C(Nc1ccc(C(F)(F)F)cc1)C1CCC(CNS(=O)(=O)c2cccc3nsnc23)CC1 (stereo not given) -3.81%
COc1cc(C2CC(=O)Nc3c2c(=O)[nH]c2nc4ccccc4n32)ccc1O (stereo not given) -28.2%
COc1ccc(-c2nn3c(-c4ccc(OC)cc4)nnc3c3ccccc23)cc1 21.4%
CCc1nn2c(=O)cc(COC(=O)c3ccccc3NC(=O)COc3ccccc3C)nc2s1 -37.7%
CC1(C)C(=O)N(CC(=O)Nc2ccc(Cl)cc2)c2ccccc21 1.1%
CCC(C)NC(=O)c1cc2c(Cl)nc3ccc(C)cc3c2s1 (stereo not given) -0.134%
CC1CCCN(c2csc3ccc(F)cc3c2=O)C1 (stereo not given) 3.88%
CCc1ccccc1NC(=O)C1=CC(c2ccc(OC)c(OC)c2)=NS(=O)(=O)N1C 4.32%
CCOC(=O)c1ccc(-n2c(N)c(C(=O)OC)c3nc4ccccc4nc32)cc1 1.26%
Cc1ccc(NC(=O)Cn2c(=O)n(Cc3ccccc3)c(=O)c3c(C)c(C)sc32)c(C)c1 2.22%
CCCOc1ccc(C(=O)Nc2cccc(-c3nc4ccccc4[nH]3)c2)cc1 -16.9%
O=C(CN1C(=O)COc2ccc(S(=O)(=O)N3CCCCC3)cc21)NCc1ccc(F)cc1 -11%
O=C(Nc1ccc(N2CCC(N3CCCCC3)CC2)c(C(=O)O)c1)c1ccc(Br)cc1 1.35%
CCOc1cc(C2C(C(=O)OC)=C(C)NC3=C2C(=O)c2ccccc23)ccc1O (stereo not given) -5.14%
CC1(C)O[C@H]2[C@@H](O1)[C@@H](C(=O)Nc1ccccc1O)O[C@@H]1OC(C)(C)O[C@@H]12 -0.29%
CCC(CC)C(=O)Nc1cccc(-c2nc3cccnc3s2)c1C 6.3%
CCOc1ccc(CNC(=O)C2CCCN(c3nc4c(C)cc(C)cc4s3)C2)cc1 (stereo not given) -3.22%
COc1ccc(-n2nc3ccc(NC(=O)c4cc5ccccc5o4)cc3n2)cc1Cl 5.02%
Cc1ccc(C(C)C)c(OCC(=O)Nc2c(C(=O)c3ccccc3)oc3ccccc23)c1 -1.44%
Cc1cccc(/C=C/c2onc(C)c2S(=O)(=O)N2CCC(C(=O)N3CCC(C)CC3)CC2)c1 -4.61%
CCOc1ccccc1NC(=O)c1c(C)cc(C)nc1SCC(=O)c1cccc(OC)c1 4.79%
O=C(Nc1cccc(C(=O)N2CCCCC2)c1)c1nsc2ccccc12 1.06%
CCc1ccc(-n2nc(C)c3c(C(=O)Nc4cccc(C(F)(F)F)c4)cc(C)nc32)cc1 1.01%
Cc1ccc(CN2C(=O)c3ccccc3C2C(=O)NC2CCCCCC2)cc1 (stereo not given) 17.3%
Cc1ccc(NC(=O)c2sc3ccccc3c2Cl)cc1 8.64%
Cc1cccn2c(=O)c(/C=C(\C#N)c3nc4ccccc4n3C)c(Oc3ccc(Br)cc3)nc12 1.56%
O=C(CN1CCN(c2ccc(Cl)cc2)CC1)Nc1ccc(F)cc1F -10.7%
Cc1ccc(NC(=O)CCCn2nc(C)c3c(C)n(-c4ccccc4)nc3c2=O)cc1Cl -2.04%
Cc1cccc(C)c1Nc1c(-c2ccsc2)nc2ccccn12 -6.59%
COc1ccc(CNC(=O)CCn2nc(C)c3c(C)n(-c4ccccc4)nc3c2=O)cc1OC 15.3%
CCOCCCn1c(=N)c(S(=O)(=O)c2ccc(C)cc2)cc2c(=O)n3cccc(C)c3nc21 -0.873%
COc1ccc(CNC(=O)C(=O)NCC(c2cccs2)S(=O)(=O)c2ccc(F)cc2)cc1 (stereo not given) -2.51%
CN1C(=O)c2ccccc2Sc2ccc(NC(=O)Nc3ccccc3F)cc21 11.6%
CCOc1ccc(N(CC(=O)Nc2ccc(F)cc2F)S(=O)(=O)c2c(C)[nH]c(=O)[nH]c2=O)cc1 -18.1%
CC(=O)N1CCCc2cc(S(=O)(=O)N(C)CC(=O)Nc3ccc(F)cc3Cl)ccc21 -2.61%
O=C(NCC(c1ccc2c(c1)OCO2)N1CCN(c2ccccc2)CC1)c1ccccc1F (stereo not given) -4.8%
Cc1ccc(NC(=O)c2c(Nc3ccccc3C)sc(C(=O)c3ccccc3)c2N)cc1 3.87%
Cc1ccc2c(c1)sc1nc(=O)n(-c3ccc(Cl)cc3)c(=O)n12 -0.252%
CN1CCN(CCCNC(=O)Cn2c(-c3cccs3)cc3ccccc32)CC1 14.2%
COc1ccc(OC)c(C2CC(=O)c3c([nH]c(C(=O)OC4CCC(C)CC4)c3C)C2)c1 (stereo not given) -15.1%
Cc1ccc(-c2cc(N)n3nc(-c4ccc(C)cc4)cc3n2)cc1 4.47%
CCOC(=O)c1noc2ncnc(N(CCC(=O)OC)c3ccccc3)c12 9.02%
Cc1c(-c2nsc(NC(=O)c3ccc(Cl)cc3)n2)nnn1-c1ccc(C(C)C)cc1 -2.26%
COc1ccc(NC(=O)c2cnn(-c3ccc(C)cc3)c2-n2cccc2)cc1Cl -7.02%
CC(=O)c1ccc(N2CCN(c3nc4c(S(=O)(=O)c5ccccc5)nnn4c4ccc(Cl)cc34)CC2)cc1 -7.59%
COc1ccc(-c2cc(C)no2)cc1S(=O)(=O)NCc1ccc(OC(C)C)cc1 -7.9%
COc1cc(NC(=O)c2cc(-c3ccc4c(c3)OCO4)on2)cc(OC)c1OC -12.1%
CC(CC(=O)NCc1ccc(Cl)cc1)CC1=NS(=O)(=O)c2ccccc2N1 (stereo not given) -5.13%
Cc1cccc(Nc2nnc(-n3nc(C)cc3C)c3ccccc23)c1 20.5%
CCc1cccc2c(-c3ccccc3)nc(SCC(=O)Nc3ccccc3)nc12 -9.93%

outcome, inactive:
COc1cccc(OC(=O)CSc2nnc(-c3ccccc3OC)o2)c1
Cc1ccc(N2C(=O)CS(=O)(=O)C23C(=O)N(Cc2cccc(F)c2)c2ccccc23)cc1Cl (stereo not given)
Cc1cccc(NC(=O)c2sc3nc4n(c(=O)c3c2C)N=C(c2ccc(F)cc2)CS4)c1C
COc1ccc(OC(=O)c2nc(SCc3ccc(C)cc3)ncc2Cl)cc1
CCC(Cc1ccccc1)NC(=O)c1ccc2nc(N3CCC(C)CC3)sc2c1 (stereo not given)
Cc1ccc(-c2nc(C)c(CCNC(=O)C(=O)Nc3ccc4c(c3)OCCO4)s2)cc1
CCc1ccc(-c2nn(CC(=O)NC3CCCC3)c3c2cnc2ccc(C)cc23)cc1
COc1ccccc1-c1nc(S(=O)(=O)c2ccc(Cl)cc2)c(N2CCCCCC2)o1
Cc1cc(O)c(C(c2ccc(F)cc2)N2CCCCC2)c(=O)n1Cc1ccco1 (stereo not given)
Cc1cc(Nc2cccc(C(F)(F)F)c2)nc2ccc(NC(=O)c3ccc(N(C)C)cc3)cc12
COc1ccc(CN(CCC(c2ccc3c(c2)OCO3)c2ccccc2OC)C(C)=O)cc1 (stereo not given)
CCOC(=O)c1ccc(OCC2c3cc(OC)c(OC)cc3CCN2C(=O)Cc2ccc(F)cc2)cc1 (stereo not given)
CCOC(=O)c1noc2ncnc(Nc3ccc(C)c(F)c3)c12
COc1ccc(S(=O)(=O)c2cn(C)c3cc(N4CCCCC4)c(F)cc3c2=O)cc1
